Assay results: PubChem BioAssay AID1508624 (National Center for Advancing Translational Sciences (NCATS), 2021)
Screen size: about 48,000 compounds; about 120 (0.25%) were called active. Not shown: some 4% with an inconclusive outcome. The call rests on the fitted dose curve; in most records, active means well fitted activation curve with a large enough effect; inconclusive means small, poorly fitted or top-dose-only effect, or another doubt; inactive means no such curve, though single readings can be large or run the other way. Some of the results follow.

Test: Primary qHTS for Identification of Small Molecule Activators of Huntingtin-Antisense Promoter Activity; further: nearly all actives have a fitted effect of over 55% in size
Conditions: HEK293 HTT-AS promoter firefly luciferase reporter, 24 h; series mostly up to 57.5 µM; activity change, positive = activation: at the top concentration
Outline: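 HEK293 luciferase promoter-reporter cells (2,500/well) plated 24 h, then compounds added at up to 57.5 uM final for 24 h at 37 °C. Firefly luminescence by Dual-Glo, normalized to vehicle (0%) and zero RLU (-100%).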

Activity change, positive = activation, inactive:
Cc1cc(C)c2c(-n3cccc3)c(C(=O)NCc3cccc(F)c3)sc2n1 -1.9%, CCc1nnc(SCc2ccc(OC)cc2)c2cc3sc(C)cc3n12 -2.68%, COc1cc(OC)c(NC(=O)c2nn(-c3ccc(C)cc3)c(=O)c3c2c2ccccc2n3C)cc1Cl 3.81%, O=C(NCc1ccccc1Cl)c1ccc(Cn2c(SCc3ccccc3)nc3cccnc32)cc1 -1.97%, Cc1c(C)n(Cc2ccccc2)c2ccc(C(=O)OCCN(C)C)cc12 -3.25%, CCc1ccccc1NC(=O)c1ccc2c(SCC(=O)O)c3c(nc2c1)CCC3 5.03%, Cc1ccccc1Cn1c2ccccc2c2cnn(CC(=O)NCC(C)c3ccccc3)c(=O)c21 (stereo unspecified) -3.58%, CSc1ccc(CCNC(=O)C(C)n2nc(C)c3sc4ccccc4c3c2=O)cc1 (stereo unspecified) -12.1%, CCOc1ccc(C2c3c(oc4ccc(C)cc4c3=O)C(=O)N2CCCN(C)C)cc1 (stereo unspecified) 18.6%, Cc1ccc(NC(=O)Cn2c(=O)n(CCCCC(=O)NCCc3ccc(Cl)cc3)c(=O)c3ccccc32)cc1 -0.784%, COc1ccc(CCNC(=O)c2oc(=O)c3ccccc3c2-c2ccccc2)cc1OC -16.7%, COc1ccc(CNC(=O)CN2C(=O)COc3ccc(S(=O)(=O)N4CCC(C)CC4)cc32)cc1 -16.7%, COc1cc(NC(=O)CCS(=O)(=O)c2nc(-c3ccc4c(c3)OCO4)cc(C(F)(F)F)n2)cc(OC)c1OC -14.6%, COC(=O)c1sc(N2C(=O)c3oc4ccccc4c(=O)c3C2c2ccc(O)cc2)nc1C (stereo unspecified) -9.29% [at 11.5 µM, percent change from vehicle, -100% = no light], CCc1c(C)sc2c1CCN(C(=O)Nc1cc(C)cc(C)c1)C2c1ccccc1 (stereo unspecified) -6%, COCCCNC(=O)CSc1nc2cc3c(cc2c(=O)n1CCCCCC(=O)NCc1ccc2c(c1)OCO2)OCO3 -1.9%, CCCCNC(=O)C1CCC(CNS(=O)(=O)c2ccc(C)cc2)CC1 (stereo unspecified) -6.9%, COc1ccccc1NC(=O)C1CCN(S(=O)(=O)c2ccc3[nH]c4c(c3c2)CCCCC4)CC1 -31.4%, CCN1CCN(C(c2ccc(SC)cc2)c2c(O)cc(C)n(Cc3ccco3)c2=O)CC1 (stereo unspecified) -0.785%, Cc1cc(C)c(NC(=O)CCn2c(=O)c3cccn3c3ccccc32)c(C)c1 -10.5%, Oc1ccc(-c2nc(-c3ccccc3)c(-c3ccc(Br)cc3)[nH]2)cc1 -32.3%, O=C(COC(=O)C(Cc1c[nH]c2ccccc12)NC(=O)c1ccc(Cl)cc1)c1ccc(Cl)cc1 (stereo unspecified) -9.96%, Cc1nn(-c2ccccc2)c2c1cc1c(=O)n(C)c(=O)nc-1n2-c1cccc(Cl)c1 -14.2%, COc1ccc(-c2cc(=O)c3cc(OCC(=O)OC(C)C)ccc3o2)cc1 -11.8%, CN(C)CC/C=C1/c2ccccc2COc2ccc(CC(=O)O)cc21 -3.43%, Cc1ccc(Cn2c(SCC(=O)NCc3ccccc3Cl)nc3ccsc3c2=O)cc1 -6.98%, Fc1ccc(Nc2nc(SCc3ccccc3F)nc3ccccc23)cc1 -31.8%, CCOC(=O)c1cc2c(=O)n3ccccc3nc2n(Cc2ccco2)c1=NC(=O)c1cccc(F)c1 -10.1%, COc1cc(NC(=O)CCCc2nnc3n(CC(C)C)c(=O)c4sccc4n23)cc(OC)c1 -9.14%, Cc1cc([N+](=O)[O-])ccc1NC(c1nnc(-c2ccccc2)o1)c1ccccc1F (stereo unspecified) -7.7%, CC(=O)N1CCc2cc(Br)cc(S(=O)(=O)CCC(=O)N3CCN(c4ccccc4)CC3)c21 -9.2%, Cc1nc2cc(C(=O)NC3CCCCCC3)ccc2n1-c1ccc(Br)cc1 -21%, Cc1cc(-c2ccc(C)c(S(=O)(=O)NCCc3ccc(S(N)(=O)=O)cc3)c2)on1 -22.7%, CC(C)c1ccc(NS(=O)(=O)c2ccc3[nH]cc(C(=O)NCC4CCCO4)c(=O)c3c2)cc1 (stereo unspecified) -3.84%, CCOc1ccc2nc(N3CCCC(C(=O)Nc4ccc(OC)c(Cl)c4)C3)sc2c1 (stereo unspecified) -3.21%, CN(C)S(=O)(=O)c1ccc2c(c1)N(CC(=O)Nc1ccc(F)cc1)C(=O)CS2 7.19%, CCc1ccc(S(=O)(=O)Nc2ccc3[nH]c(=O)sc3c2)cc1 -23.4%, Cc1cccc(NC(=O)c2sc3nc4c(cc3c2N)CN(C(C)C)CC4)c1 -14.3%, Cc1cccc(N2CCN(C(=O)CN3C(=O)COc4ccc(S(=O)(=O)N5CCOCC5)cc43)CC2)c1C -8.77%, CCC1CCCCN1C(=O)CSc1nc(-c2ccc(OC)c(OC)c2)cc(C(F)(F)F)n1 (stereo unspecified) -35.6%, CC1=C(C(=O)OC2CCCCCC2)C(c2cccc(F)c2F)CC(=O)N1 (stereo unspecified) -32.2%, CCOc1ccc(OCC)c(NC(=O)CCc2nc3cccnc3n2Cc2cccs2)c1 -17.6%, COc1ccc(-c2nc(C)c(CCNC(=O)c3c(F)cccc3F)s2)cc1 9.46%, COc1cc(Cl)c(C)cc1NC(=O)CSc1nc2c(c(=O)[nH]1)CCCC2 -9.83%, CCCCNC(=O)CCCn1c(=O)c2ccccc2n(Cc2c(C)cc(C)cc2C)c1=O -15.4%, COC(=O)N1CCCc2cc(S(=O)(=O)N3CCN(c4ccccc4)CC3)ccc21 -24.1%, CN(C)c1ccc(CNC(=O)c2cnc3sc(N4CCCCCC4)nn3c2=O)cc1 -14.4%, Cc1cccc(Cc2c(C)nc3nc(SCc4ccccc4Cl)nn3c2C)c1 -9.72%, Cc1ccc(C)c(Cn2c(=O)n(CCC(=O)NCc3ccc4c(c3)OCO4)c(=O)c3sccc32)c1 -2.74%, COC(=O)c1ccccc1NC(=O)c1cc(C)nc2c1c(C)nn2-c1ccc(C)cc1 -7.21%, COc1cc(OC)c(NC(=O)n2ncc3cc(Cl)ccc32)cc1Cl -17.2%, COc1ccc(OC)c(NC(=O)CSC2=Nc3ccccc3C3=NC(CC(=O)NCc4ccc(F)cc4)C(=O)N23)c1 (stereo unspecified) -13.9%, COc1ccc(C2CC(=O)c3c([nH]c(C(=O)OC4CCCCCC4)c3C)C2)cc1 (stereo unspecified) -22%, COc1cccc(OCC(=O)NC2CC(=O)N(c3ccc4c(c3)OCCO4)C2)c1 (stereo unspecified) -12.6%, Cc1ccc(Cl)cc1NC(=O)NCc1cccn1Cc1ccc(F)cc1 -23.6%, O=C(Nc1ccccc1O)c1cc(S(=O)(=O)N2CCCC2)ccc1Cl -38.6%, Cc1ccc2nc(-c3ccc(NC(=O)c4ccccc4S(C)(=O)=O)cc3)sc2c1 15.4%, COc1ccc2c(c1)c1c(c(=O)n(-c3ccc(OC)c(OC)c3)c(=O)n1CC(=O)N1CCCC1)n2C -13.4%, Cc1ccc(NC(=O)N2CCN(c3nnc(C)c4c(C)n(-c5ccc(Cl)cc5)nc34)CC2)c(C)c1 -7.5%, Cc1ccc(CNC(=O)CSc2ncc(S(=O)(=O)c3ccc(C)c(Cl)c3)c(=O)[nH]2)cc1 3.12%, O=C1CCCC(=O)C1C(=O)c1ccc(C(F)(F)F)cc1[N+](=O)[O-] -0.543%, C[C@@H]1CN(Cc2ccc(F)cc2)[C@@H](C)CN1C(=O)c1cc2c(C(=O)C(=O)N(C)C)cn(C)c2cc1Cl -31%, Cc1ccc(NC(=O)CSc2nc3ccc(NC(=O)COc4ccc(C)cc4)cc3s2)cc1 -7.29%, NC(=O)NS(=O)(=O)c1ccc(N)cc1 -5.23%, COc1ccccc1N1CCN(C(=O)CCn2nc(C)c(S(=O)(=O)N3CCCC3)c2C)CC1 -3.99%, O=C(Nc1nnc(C2CC(=O)N(c3ccc(Cl)cc3)C2)s1)c1ccco1 (stereo unspecified) -3.68%, Cc1ccc(SCc2nc(-c3ccc(C(=O)Nc4cc(C)ccc4C)cc3)oc2C)cc1 -31.2%, O=C(Nc1ccc2[nH]c(=O)c(=O)[nH]c2c1)c1cccc(F)c1 -5.71%, Cc1ccccc1C1=CCN(c2ncc(NC(=O)c3ccc(Cl)cc3)cc2C(=O)O)CC1 -5.25%, Cc1nc2nc(SCC(=O)NCCc3ccc(Cl)cc3)nn2c(C)c1Cc1ccccc1Cl -18.6%, Cc1nc2c(-c3ccccc3)c(C)nn2c(C)c1CCC(=O)Nc1ccccc1F -37.1%, COc1ccc(C2CC(=O)Nc3c2c(=O)n(C)c2nc4ccccc4n32)cc1 (stereo unspecified) -26.7%, COc1ccc(C(=O)c2cn(Cc3cccc(C)c3)c3cc4c(cc3c2=O)OCO4)cc1 -14.7%, COc1cc(Cl)c(C)cc1NC(=O)CSc1cc(-c2ccccc2)nc(C)n1 -4.13%, COc1ccc(CC(=O)NCCc2csc(-c3ccc(C(F)(F)F)cc3)n2)cc1 -5.96%, CCc1ccccc1NC(=O)Cn1c(=O)n(CC(=O)NCCc2ccccc2)c(=O)c2ccccc21 -7.69%, COC(=O)c1sc2cccc(F)c2c1S(=O)(=O)Nc1ccc(C)cc1Cl -8.55%, Cc1c(/C=C(\C#N)C(=O)Nc2cccc(Cl)c2)c2ccccc2n1Cc1ccccc1 -17.9%, Cc1ccc(NS(=O)(=O)c2ccc3c(c2)[C@H]2C=CC[C@H]2[C@@H](c2ccc(F)cc2)N3)cc1C -29.7%, Cn1c(=O)c2c(SCC(=O)NCc3ccc(F)cc3)nc(-c3ccccc3Cl)nc2n(C)c1=O 7.68%, CN1C(=O)Cc2cc(S(=O)(=O)CCC(=O)Nc3ccc(OC(F)(F)F)cc3)ccc21 -21.4%, Cc1ccc(NC(=O)CN2C(=O)c3ccccc3Sc3ccc(C(=O)N4CCOCC4)cc32)c(Cl)c1 -13.1%, CCN(C(=O)C1CCCN(c2ncnc3c2nc2n3CCCCC2)C1)c1cccc(C)c1 (stereo unspecified) -35%, CCOc1ccc(OC(=O)c2c(-c3ccccc3Cl)noc2C)cc1 -25.4%, CCc1cc2c(cc3c(=O)n(CC(=O)NCc4cc(Br)ccc4OC)ncn32)s1 -1.41%, CCN(CC)S(=O)(=O)c1ccc2oc(C(=O)Nc3cc(C)ccc3OC)c(C)c2c1 19%, CC(=O)c1ccc(N2CCN(C(=O)CCn3cnc4onc(-c5ccc(F)cc5)c4c3=O)CC2)cc1 -10.4%, O=C1CC(c2ccc(F)cc2)c2c(c3ccccc3[nH]c2=O)O1 (stereo unspecified) -8.41%, CCOc1ccccc1NC(=O)Nc1cc2c(cc1N1CCCCC1)n(CC)c(=O)n2CC -31.9%, CCOC(=O)c1ccc(NC(=O)CSc2nccn2-c2cc(C)cc(C)c2)cc1 -24.5%, CCOc1ccccc1CNCc1c(C(=O)O)n(Cc2ccc(F)cc2)c2cc(C)ccc12 -13.5%
